Data: PubChem BioAssay AID889 (National Center for Advancing Translational Sciences (NCATS), 2007)
About 15 (0.02%) of roughly 75,000 compounds were called active. Inconclusive means that the source gave no clear call. Such entries were picked first, then a sample of the others. Calls follow the shape of the dose curve; as a rule, active = well fitted inhibition curve with a large enough effect in the main read-out, with a control signal flat (not every such curve was filed as active); inconclusive = small, poorly fitted or top-dose-only effect, or a change in a side signal; inactive = flat fitted curve, though single readings scatter. Potencies beside an inconclusive call are fits to weak or partial responses and may not hold up. A note “side channel” means that the fit belongs to a control or component signal, not to the main read-out.
For activity change, negative = inhibition in this document: % of control where 0% means no effect.
Potency is read from the fitted curve at half-maximal effect; tags tell the direction and shape of the fitted curve or compound fluorescence and quenching.

What follows are molecules tested against Caspase-7 (Homo sapiens) (UniProt P55210) (assay: qHTS Assay for Allosteric/Competitive Inhibitors of Caspase-7). Conditions: recombinant caspase-7, Ac-DEVD-AFC fluorescence rate; activity change, negative = inhibition: at 57.5 µM (top of the series) unless noted.
UniProt P55210, sequence (P55210 whole entry, looked up): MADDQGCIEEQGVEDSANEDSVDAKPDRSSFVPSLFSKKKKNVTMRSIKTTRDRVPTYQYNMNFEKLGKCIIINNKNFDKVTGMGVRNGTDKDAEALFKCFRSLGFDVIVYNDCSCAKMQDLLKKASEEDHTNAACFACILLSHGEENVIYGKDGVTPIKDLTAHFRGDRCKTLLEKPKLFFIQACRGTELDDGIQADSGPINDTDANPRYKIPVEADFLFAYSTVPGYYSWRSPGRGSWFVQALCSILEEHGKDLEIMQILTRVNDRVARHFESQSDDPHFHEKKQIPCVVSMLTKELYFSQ
In the case of `COCCn1c(=O)c(-c2cc(F)cc(F)c2)nc2cnc(N3CCN(C)CC3)nc21`, the Potency is reported as inconclusive: 7.94 µM [fluorescent, side channel, partial curve]. With `Cc1nc2cnc(N3CCNCC3)nc2n(-c2ccccc2)c1=O` the Potency was inconclusive: 15.8 µM [inhibitor, partial curve]. With `O=c1c2ccccc2c(/C=N/n2cnnc2)c(O)n1-c1ccccc1F` the Potency was inconclusive: 15.8 µM [fluorescent, side channel, partial curve]. With `Cc1cc(C)nc(/N=c2/ssnc2Cl)c1` the Potency was inconclusive: 12.6 µM [fluorescent, side channel, partial curve]. In the case of `c1cc2c3c(cccc3c1)C(N1CCCCC1)=N2`, the Potency is reported as inconclusive: 15.8 µM [fluorescent, partial curve]. With `Cn1c(N)c(S(=O)(=O)c2ccc(Br)cc2)c2nc3ccccc3nc21` the Potency was inconclusive: 25.1 µM [inhibitor, partial curve]. With `COc1ccc(-c2nc3cnc(N4CCNCC4)nc3n(CCC#N)c2=O)cc1` the Potency was inconclusive: 10 µM [fluorescent, side channel, partial curve]. With `COc1ccc(-n2nnc3c(=O)n(Cc4cccc(C)c4)cnc32)cc1` the “activity change, negative = inhibition” value was inactive: -0.347%. With `CCCNC(=O)c1c(N)n(-c2cc(OC)cc(OC)c2)c2nc3ccccc3nc12` the Potency was inconclusive: 6.31 µM [fluorescent, side channel, partial curve]. In the case of `CCCCCCOC(=O)C(C#N)c1nc2ccccc2nc1N1CCOCC1` (stereo not given), the Potency is reported as inconclusive: 31.6 µM [fluorescent, partial curve]. In the case of `COc1ccc(Nc2ncc3c(n2)CC(c2ccc(OC)cc2)CC3=O)cc1` (stereo not given), the Potency is reported as inconclusive: 25.1 µM [inhibitor, single point]. With `O=C(c1cccs1)c1ccc(-c2cccs2)s1` the Potency was inconclusive: 15.8 µM [fluorescent, partial curve]. In the case of `COc1ccc(Nc2cc(C(=O)NCCCN3CCN(C)CC3)c3ccccc3n2)c(OC)c1`, the “activity change, negative = inhibition” value is reported as inactive: -0.274%. In the case of `COc1ccc(OC2C=CC(C#Cc3ccc(Br)cc3)OC2CO)c(C(C)(C)C)c1` (stereo not given), the activity change, negative = inhibition is reported as inactive: -1.66% [at 11.5 µM]. In the case of `COc1ccc(CCNC(=O)c2ccc3nc(-c4ccco4)c(-c4ccco4)nc3c2)cc1OC`, the Potency is reported as inconclusive: 12.6 µM [fluorescent, side channel, partial curve]. In the case of `COc1ccc2nc(SCC(=O)N(C)C3CCCCC3)c(C#N)cc2c1`, the Potency is reported as inconclusive: 31.6 µM [inhibitor, single point]. `Cn1c(C(=O)NCCCN2CCCC2=O)cc2c(=O)n3ccccc3nc21` was tested, and the Potency was inconclusive: 5.01 µM [fluorescent, side channel, full curve]. In the case of `Cc1ccc(N2C(=O)c3cccc4c(N5CCN(C)CC5)ccc(c34)C2=O)c2cccnc12`, the Potency is reported as inconclusive: 1.58 µM [fluorescent, side channel, full curve]. `COc1ccc(S(=O)(=O)C(C#N)c2nc3ccccc3nc2N2CCC(C)CC2)cc1` (stereo not given) was tested, and the Potency was inconclusive: 3.16 µM [inhibitor, partial curve]. With `CC(C)CN1CCC2(CC1)CCN(C(=O)c1cnccn1)CC2` the “activity change, negative = inhibition” value was inactive: -0.747%. For `O=C1C2CC=C(Cl)CC2C(=O)N1CN(Cc1ccco1)CN1C(=O)C2CC=C(Cl)CC2C1=O` (stereo not given), the Potency was inconclusive: 15.8 µM [inhibitor, partial curve]. In the case of `CC(C)OCCCNC(=O)c1cccs1`, the “activity change, negative = inhibition” value is reported as inactive: 0.875%. `CCn1c(=O)c(C(C)=O)nc2ccccc21` was tested, and the Potency was inconclusive: 20 µM [inhibitor, partial curve]. With `Cc1ccccc1-n1nc(C)c2cc(C(=O)NCc3cccnc3)sc21` the Potency was inconclusive: 31.6 µM [fluorescent, partial curve]. In the case of `N=c1c(C(=O)NCC2CCCO2)cc2c(=O)n3ccccc3nc2n1Cc1cccnc1` (stereo not given), the Potency is reported as inconclusive: 5.01 µM [fluorescent, side channel, partial curve]. With `Cc1cc(C(=O)OCCO)c(C#N)c(N)n1` the Potency was inconclusive: 25.1 µM [inhibitor, single point]. In the case of `COC(=O)C1=CN(C(C)C)C=C(C(=O)OC)C1c1cccc(OC)c1`, the Potency is reported as inconclusive: 12.6 µM [fluorescent, side channel, partial curve]. For `COCCOC(=O)C(C#N)c1nc2ccccc2nc1N1CCN(Cc2ccccc2)CC1` (stereo not given), the Potency was inconclusive: 25.1 µM [inhibitor, partial curve]. In the case of `CC(C)c1cccc2nc3c(c([Si](C)(C)C)c12)Cn1c-3cccc1=O`, the Potency is reported as inconclusive: 25.1 µM [fluorescent, partial curve]. With `COc1cc(SC)ccc1C(=O)Nc1ccon1` the “activity change, negative = inhibition” value was inactive: -1.07%. For `O=C1/C(=C/Nc2ccc3c(c2)OCO3)CCc2ccccc21`, the Potency was inconclusive: 25.1 µM [inhibitor, single point]. For `CCNc1ncc2nc(-c3ccccc3)c(=O)n(C3CC3)c2n1`, the Potency was inconclusive: 3.98 µM [fluorescent, side channel, partial curve]. `Cn1c(=O)c(-c2ccc(F)cc2)nc2cnc(OCc3ccccc3)nc21` was tested, and the Potency was inconclusive: 31.6 µM [fluorescent, single point]. With `Cc1cc(NCCCn2ccnc2)n2c(nc3ccccc32)c1C#N` the Potency was inconclusive: 12.6 µM [fluorescent, side channel, partial curve]. In the case of `CN(C)c1ncc2nc(-c3ccc(Cl)cc3)c(=O)n(Cc3ccc(F)cc3)c2n1`, the Potency is reported as inconclusive: 2 µM [fluorescent, side channel, full curve]. `COc1ccc(-c2nc3cnc(Nc4ccccc4)nc3n(Cc3cccs3)c2=O)cc1` was tested, and the Potency was inconclusive: 0.794 µM [fluorescent, full curve]. With `O=C(O)C1C2C=CC(C2)C1C(=O)Nc1cccc(F)c1` (stereo not given) the “activity change, negative = inhibition” value was inactive: -0.716%. `CN(C)c1ncc2nc(-c3ccc(F)cc3)c(=O)n(C)c2n1` was tested, and the Potency was inconclusive: 6.31 µM [fluorescent, side channel, partial curve]. In the case of `COc1ccc(C(C)=O)cc1CSc1nnc(C)s1`, the “activity change, negative = inhibition” value is reported as inactive: 1.2%. For `N#Cc1c(-c2ccco2)cc(-c2ccc(F)cc2)nc1N`, the Potency was inconclusive: 31.6 µM [inhibitor, single point].
